Measured values reported in PMC4336329 (PLoS ONE, 2015).
The campaign covered roughly 310,000 compounds. About 14,000 (4.5%) showed an effect of 50% or more. The effect is printed as a negative number. The list shows a part of the results.

target: human ether-à-go-go-related gene (hERG) potassium channel (human, UniProt Q12809); test: primary screen, population patch clamp on CHO cells stably expressing hERG
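Note: peak tail current of the secondary pulse compared with the same well before compound.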

Chain of human ether-à-go-go-related gene (hERG) potassium channel (Q12809 whole entry, looked up): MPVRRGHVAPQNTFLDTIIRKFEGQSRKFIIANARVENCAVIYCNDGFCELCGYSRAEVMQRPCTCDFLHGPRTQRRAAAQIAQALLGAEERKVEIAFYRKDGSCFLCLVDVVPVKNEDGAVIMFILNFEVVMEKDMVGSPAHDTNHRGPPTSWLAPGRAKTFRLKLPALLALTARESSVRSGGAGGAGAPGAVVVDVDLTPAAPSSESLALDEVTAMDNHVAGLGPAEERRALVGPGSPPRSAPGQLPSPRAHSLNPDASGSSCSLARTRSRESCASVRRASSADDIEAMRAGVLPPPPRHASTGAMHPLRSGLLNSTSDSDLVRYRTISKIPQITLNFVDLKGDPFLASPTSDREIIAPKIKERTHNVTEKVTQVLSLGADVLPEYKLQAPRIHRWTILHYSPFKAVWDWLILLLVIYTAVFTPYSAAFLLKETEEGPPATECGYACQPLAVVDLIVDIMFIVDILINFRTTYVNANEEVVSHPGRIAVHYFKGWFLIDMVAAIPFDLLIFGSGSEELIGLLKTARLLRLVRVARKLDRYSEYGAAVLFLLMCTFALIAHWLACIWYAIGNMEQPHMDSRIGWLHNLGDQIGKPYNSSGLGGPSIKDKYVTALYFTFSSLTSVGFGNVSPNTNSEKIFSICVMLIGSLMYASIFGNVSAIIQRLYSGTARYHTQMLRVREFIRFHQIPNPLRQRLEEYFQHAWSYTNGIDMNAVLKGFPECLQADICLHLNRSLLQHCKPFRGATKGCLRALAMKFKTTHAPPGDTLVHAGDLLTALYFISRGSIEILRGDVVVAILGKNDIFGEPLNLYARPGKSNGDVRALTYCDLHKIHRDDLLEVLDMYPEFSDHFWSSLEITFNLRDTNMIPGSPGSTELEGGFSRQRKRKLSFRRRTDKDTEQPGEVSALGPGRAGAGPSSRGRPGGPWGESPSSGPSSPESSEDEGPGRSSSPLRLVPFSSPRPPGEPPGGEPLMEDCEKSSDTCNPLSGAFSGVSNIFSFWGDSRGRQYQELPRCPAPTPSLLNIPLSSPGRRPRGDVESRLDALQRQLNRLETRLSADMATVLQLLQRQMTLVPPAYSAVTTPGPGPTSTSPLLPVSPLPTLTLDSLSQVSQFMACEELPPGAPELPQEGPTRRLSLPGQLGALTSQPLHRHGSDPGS

Row | Compound | hERG current change (%, negative = inhibition) at 10uM [%]
1 | CCOC(=O)N1CCN(C(=O)c2cn(CC)c3ccc(S(=O)(=O)N4CCC(C)CC4)cc3c2=O)CC1 | 4.17
2 | O=S(=O)(Nc1cccc(-n2cnnn2)c1)c1cc(Br)ccc1Br | 2.53
3 | CC(=O)NCCc1ccc(S(=O)(=O)Nc2ccc(NC(=O)c3ccc(F)cc3)cc2)cc1 | 15.4
4 | CCOC(=O)c1cnc2c(C(=O)OC)cccc2c1NCc1cccnc1 | -70.5
5 | O=C(Nc1ccc(-c2csnn2)cc1)C(Cl)(Cl)Cl | 17.5
6 | CC(=O)Nc1ccc(NC(=O)c2sc(-c3ccccc3)nc2C)cc1 | 10.6
7 | Cn1c(CN2CCCC2)nc2cc(NS(=O)(=O)c3ccc(Cl)cc3)ccc21 | -61.7
8 | COc1ccc(S(=O)(=O)N/N=C\c2ccc(OC)c(COc3ccc(C)cc3[N+](=O)[O-])c2)cc1 | 6.76
9 | Cc1ccc(-c2cc([C@H]3[C@H]4C=CC[C@@H](C)[C@@H]4C(=O)N3Cc3ccccc3)ccc2F)cc1 | 22.4
10 | N/C(Cc1ccc(Cl)cc1Cl)=N\OC(=O)c1ccc(Br)o1 | 19
11 | CN1CCN(C(=O)C2=C[C@H](c3ccc4c(c3)OCO4)C[C@H](OCc3ccc(CO)cc3)O2)CC1 | -31.1
12 | CC(=O)N(C)c1ccc(NC(=O)Nc2ccc(C)c(C)c2)cc1 | -0.764
13 | COc1cc(C)c(Cl)cc1S(=O)(=O)N1CCSC1 | 5.11
14 | Cc1cccc2sc(NC(=O)CN3C(=O)C4CC=CCC4C3=O)nc12 (stereo not shown) | -10.7
15 | COc1cccc(-n2c(=O)c3sccc3n(CC(=O)NCC3CCCO3)c2=O)c1 (stereo not shown) | 12.8
16 | Cc1cc(C)c(CSc2nnnn2-c2ccc(C(=O)O)cc2)c(C)c1 | 7.1
17 | C=CCSc1nnc(-c2cc3c(s2)-c2ccccc2CC3)o1 | 10.8
18 | CC(C)(C)NC(=O)NC(=O)COC(=O)c1cccc(OC(F)F)c1 | -28.4
19 | CCOc1ccc(S(=O)(=O)n2cnc(C)c2)cc1 | 13.1
20 | CC(=O)OCCN(Cc1ccccc1)Cc1ccc2c(c1)OCO2 | -10.8
21 | COc1cc(NC(=O)CN2C3CCC2CC(O)(c2cccnc2)C3)cc(OC)c1 (stereo not shown) | -60.9
22 | CCOCCCN(C(=O)Cn1nnc(-c2ccc(OC)c(OC)c2)n1)C(CC)C(=O)NC1CCCC1 (stereo not shown) | -21

Row | Compound | hERG current change (%, negative = inhibition) at 10uM [%]
23 | COCCc1nnc(NC(=O)C23CC4CC(CC(C4)C2)C3)s1 | 13.8
24 | Cc1c(C(=O)NCc2cccnc2)oc2c1C(=O)CC(C)(C)C2 | -5.82
25 | COc1ccc(NC(=O)CN(C)S(=O)(=O)c2cccc3nsnc23)cc1 | -21.9
26 | COc1ccc(N(CC(=O)Nc2cccc(SC)c2)S(C)(=O)=O)cc1Cl | -19
27 | C/C(Cl)=C/Cn1c(N2CCCC2)nc2c1c(=O)n(C)c(=O)n2C | -2.69
28 | O=C1NC(=S)N(c2cccc(Cl)c2)C12CCCCC2 | 13.3
29 | CC(=O)OCC(OC(C)=O)C(OC(C)=O)C(OC(C)=O)C(=O)Nc1ccc(C)cc1C (stereo not shown) | -3.68
30 | CCC(C)(C)n1nnnc1C(C(C)C)N1CCSCC1 (stereo not shown) | -61.6
31 | CSc1ccc(C2C(C#N)=C(N)N(c3ccccc3)C3=C2C(=O)CCC3)cc1 (stereo not shown) | -38.8
32 | CCc1cccc(NC(=O)CSc2nc3c(c(=O)[nH]2)CCCC3)c1 | 22.6
33 | O=C(CSc1nc2ccc(Cl)cc2[nH]1)NCCc1ccccc1 | -3.25
34 | CCOc1cc(CNCCO)ccc1OCC(=O)NC(C)(C)C.Cl | 15.7
35 | Br.O=C(CN(Cc1ccccc1)C1=NCCS1)c1ccc(Cl)cc1 | -49.8
36 | Cc1ccc(S(=O)(=O)N2CCCCC2)cc1NC(=O)COC(=O)c1ccc(O)cc1 | -9.75
37 | CCCOc1cccc(NC(=O)c2c(-c3ccccc3)noc2C)c1 | -8.81
38 | CCc1ccc(-n2c(SCC(=O)Nc3cccc(S(=O)(=O)NC4=NCCCCC4)c3)nc3ccccc3c2=O)cc1 | 25.8
39 | CC(C)OCCCNC(=O)Cn1ncc2c(=O)oc3ccccc3c21 | -5.08
40 | O=C1CC(c2cc(F)ccc2F)c2cc3c(cc2N1)CCC3 (stereo not shown) | -2.24
41 | CCOC(=O)N1CCN(CC(=O)Nc2cc(C)nn2-c2nc3ccccc3s2)CC1 | -23.3
42 | Cc1ccc(-c2nnc(N3CCCCC3)c3ccccc23)cc1S(=O)(=O)N(C)C | -27
43 | Cc1cc(C)c(C)c(S(=O)(=O)N2CCC(C(=O)Nc3ccccc3N3CCOCC3)CC2)c1C | -8.54
44 | O=c1nc2ccccc2c(NS(=O)(=O)c2ccccc2)n1-c1ccccc1 | 2.7

Row | Compound | hERG current change (%, negative = inhibition) at 10uM [%]
45 | COc1ccc(OC(=O)C(C)N2C(=O)c3ccccc3C2=O)cc1 (stereo not shown) | 2.07
46 | Cc1ccc(S(=O)(=O)N2c3ccccc3OCC2C(C)(C)C)cc1 (stereo not shown) | 4.08
47 | CC(C)(Oc1ccc(Cl)cc1)C(=O)N(Cc1ccccc1)c1ccccn1 | -7.15
48 | COc1ccc(-n2nc(C(=O)NCC(=O)NCCCN3CCOCC3)c3ccccc3c2=O)cc1 | 3.4
49 | Cc1ccccc1C1c2[nH]c3ccccc3c2C[C@H]2C(=O)N(c3ccccc3C(=O)NCCCN3CCOCC3)C(=O)N12 (stereo partly shown) | -21.3
50 | CCOC(=O)c1cnc2c(cnn2C)c1Cl | 8.92
51 | O=C(NCCNc1ccc([N+](=O)[O-])cc1Cl)c1ccccc1F | -13.5
52 | CC(C)(C)C1CCc2onc(C(=O)NCc3ccc(F)cc3)c2C1 (stereo not shown) | -15.8
53 | CC(=O)Nc1cccc2c1OCCO2 | 6.45
54 | Cc1ccc(-c2cc(C(=O)NCCCn3ccnc3)c3ccccc3n2)s1 | -70.9
55 | CCOc1ccc(N2C(=O)CC(SCc3nc4ccccc4[nH]3)C2=O)cc1 (stereo not shown) | -31
56 | OC(c1nc2ccc(F)cc2[nH]1)C(O)c1nc2ccc(F)cc2[nH]1 (stereo not shown) | 8.96
57 | O=C(Nc1nnc(-c2ccc(F)cc2)s1)c1c(F)cccc1Cl | 12.1
58 | COc1ccc(/C=C2/C(=O)NC(=O)N(c3ccccc3)C2=O)cc1CN1C(=O)c2ccccc2C1=O | 8.65
59 | CCCCCOP(=O)(c1ccccc1)c1ccccc1 | -29.8
60 | Cc1ccccc1S(=O)(=O)Cc1ccc(C(=O)O)o1 | 10.8
61 | CCOC(=O)c1cccc(-[n+]2c(-c3ccccc3)cc(-c3ccccc3)cc2-c2ccccc2)c1.[O-][Cl+3]([O-])([O-])[O-] | -73.5
62 | NC(=O)c1ccsc1NC(=O)CS(=O)(=O)c1ccc(Cl)cc1 | -75.7
63 | O=C(CSc1nc(O)c(C2CCCCC2)c(=O)[nH]1)N1CCOCC1 | 15.7
64 | COC(=O)c1cc(NC(=O)c2c(Cl)nc3sccn23)cc(C(=O)OC)c1 | 23.4
65 | O=C(NCCCN1CCOCC1)c1ccc2c(c1)N(Cc1c(F)cccc1Cl)C(=O)CS2 | -21.4
66 | O=C(NCC(=O)N(CC1CCCO1)C1(C(=O)NC2CCCCC2)CCCCC1)c1ccccc1 (stereo not shown) | 1.48

Row | Compound | hERG current change (%, negative = inhibition) at 10uM [%]
67 | Cc1cccc2c1cnn2C(=O)CCC(=O)N1CC(C)CC(C)C1 (stereo not shown) | -37.1
68 | O=C(O)CSc1ncnc2scc(-c3ccc(Br)cc3)c12 | -2.23
69 | Cc1cc(=O)n(Cc2ccccc2)c2ccccc12 | 4.79
70 | CCOc1ccccc1C(=O)NCc1ccc2c(c1)OCO2 | -12.1
71 | Cc1ccc(CSCc2ccc(C(=O)NCCC(C)C)o2)cc1 | -15.9
72 | O=C(NC1c2ccccc2-c2ccccc21)N1CCOCC1 | -12.9
73 | C=CCN1C(=O)C(CC(=O)Nc2ccccc2)SC1=Nc1c(C)n(C)n(-c2ccccc2)c1=O (stereo not shown) | -0.0305
74 | COCCCN1C(=O)/C(=C/c2ccc(CNS(=O)(=O)c3ccccc3)o2)C(C(=O)OC)=C1C | 3.9
75 | COc1cc([N+](=O)[O-])ccc1NC(=O)COC(=O)C=C(C)C | -0.511
76 | CCC(C)(C)NC(=O)C(c1cccn1C)N(C(=O)Cn1nnc2ccccc21)c1ccc(NC(C)=O)cc1 (stereo not shown) | -5.41
77 | COC(=O)c1cnn(-c2ccc(F)cc2F)c1/C=N/NC(=S)NC(C)(C)C | 1.92
78 | O=C(COc1ccc(Cl)cc1Cl)NCCCNC(=O)c1cnccn1 | -56.5
79 | O=C(CN1C(=O)CCS(=O)(=O)c2ccccc21)Nc1ccc(F)cc1 | 11.9
80 | CCC(CC)NC(=O)Cc1ccc(F)cc1 | 13.9
81 | CCOC(=O)c1c(CN(CC)CC)oc2cc(Br)c(O)cc12 | -79.8
82 | CN(Cc1cn(C)nc1-c1ccc(Oc2ccccc2)cc1)C1CCOC1 (stereo not shown) | -10.8
83 | O=C(Nc1ccc(Oc2cccnc2)cc1)C1CCN(Cc2ccccc2)CC1 | -75.1
84 | CCc1nnc(NC(=O)CCC(=O)N2CCN(S(=O)(=O)c3ccc(OC)cc3)CC2)s1 | 20.6
85 | O=C(Nc1ccccc1)C(Cl)C(=O)c1ccccc1 (stereo not shown) | -9.25
